In the supplement of paper PMC9446081:
Screen size: about 39,000 compounds; about 220 (0.56%) showed activity. The list shows a part of the results.
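Further: static incubation at 37 °C against the wild-type strain, values averaged over two biological replicates.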

These compounds were tested on Escherichia coli K-12 BW25113 (assay: relative growth (OD600 normalised to plate interquartile mean) (fraction); higher = less growth inhibition, active = 0.2 or less). Details: 50 µM; LB; incubation time: overnight (16-24 h).
`C[C@H](CO)N1C[C@H](C)[C@@H](CN(C)S(C)(=O)=O)Oc2cc(-c3ccc(F)cc3)ccc2S1(=O)=O` was tested, and the relative growth was inactive: 1.01.
For `C[C@H](CO)N1C[C@H](C)[C@@H](CN(C)S(=O)(=O)c2cn(C)cn2)Oc2ccc(NS(=O)(=O)c3cccs3)cc2C1=O`, the relative growth was inactive: 0.999.
In the case of `COc1ccc([Si](C)(C)[C@@H]2[C@@H](CC(=O)N3Cc4ccccc4C[C@H]3CO)O[C@]3(C(=O)N(Cc4ccc(N5CCC5=O)cc4)c4ccccc43)[C@H]2C)cc1`, the relative growth is reported as inactive: 0.907.
In the case of `COCC(=O)N1[C@H](C(=O)NCc2ccccc2)[C@@H](CO)[C@@H]2Cn3c(cccc3=O)[C@@H]21`, the relative growth is reported as inactive: 1.03.
In the case of `O=C(C[C@@H]1CC=CCCC(=O)OCCNC1=O)NCCO`, the relative growth is reported as inactive: 1.02.
In the case of `COc1ccc(-c2coc3cc(OC)ccc3c2=O)c(O)c1`, the relative growth is reported as inactive: 0.904.
In the case of `C[C@H]1CN([C@@H](C)CO)C(=O)c2cc(NC(=O)CCCCCC(=O)Nc3ccccc3N)ccc2O[C@H]1CN(C)CC1CCCCC1`, the relative growth is reported as inactive: 0.97.
In the case of `CN(C)C(=O)[C@H]1[C@H](CO)[C@H]2Cn3c(ccc(C4=CCCC4)c3=O)[C@@H]1N2S(=O)(=O)c1cn(C)cn1`, the relative growth is reported as inactive: 1.01.
For `C[C@@H]1CN([C@@H](C)CO)C(=O)Cc2cc(NC(=O)Nc3ccc(F)cc3)ccc2O[C@H]1CN(C)Cc1ccc(C(=O)Nc2ccccc2N)cc1`, the relative growth was inactive: 1.01.
`COCC(=O)Nc1ccc2c(c1)OC[C@H](C)N(Cc1cccc(F)c1)C[C@H](C)[C@@H](OC)CN(C)C2=O` was tested, and the relative growth was inactive: 0.973.
In the case of `C[C@H](CO)N1C[C@H](C)[C@H](CN(C)S(=O)(=O)c2ccc(F)cc2)Oc2ncc(C#CC3(O)CCCC3)cc2C1=O`, the relative growth is reported as inactive: 0.995.
In the case of `CC1=CC(=O)N(c2ccn(C)n2)C1=O`, the relative growth is reported as inactive: 0.987.
For `C[C@H](CO)N1C[C@H](C)[C@H](CN(C)C(=O)c2ccccc2)OCCCC[C@H](C)Oc2ccc(NC(=O)CCC(F)(F)F)cc2C1=O`, the relative growth was inactive: 0.994.
For `C[C@@H]1CN([C@H](C)CO)C(=O)Cc2cc(NC(=O)Cn3cnnn3)ccc2O[C@@H]1CN(C)C(=O)Nc1ccc(F)cc1`, the relative growth was inactive: 0.989.
For `C[C@H](CO)N1C[C@H](C)[C@@H](CN(C)C(=O)NC2CCCCC2)Oc2ccc(NC(=O)CCN3CCOCC3)cc2CC1=O`, the relative growth was inactive: 0.985.
For `COCC#Cc1cnc2c(c1)C(=O)N([C@@H](C)CO)C[C@@H](C)[C@@H](CN(C)C(=O)CCN1CCCCC1)O2`, the relative growth was inactive: 0.999.
`C[C@H](CO)N1C[C@H](C)[C@H](CN(C)S(=O)(=O)c2cccc(C#N)c2)OCc2cn(nn2)CCCC1=O` was tested, and the relative growth was inactive: 0.983.
`Cc1noc(C)c1NC(=O)Nc1ccc2c(c1)C(=O)N([C@@H](C)CO)C[C@H](C)[C@@H](CN(C)Cc1ccncc1)OCCCC[C@H](C)O2` was tested, and the relative growth was inactive: 1.01.
`COc1ccc(S(=O)(=O)N(C)C[C@@H]2Oc3c(NC(=O)c4cc(C)nn4C)cccc3C(=O)N([C@@H](C)CO)C[C@H]2C)cc1` was tested, and the relative growth was inactive: 1.03.
With `Cc1noc(C)c1NC(=O)N(C)C[C@H]1Oc2ccc(NS(C)(=O)=O)cc2C(=O)N([C@@H](C)CO)C[C@@H]1C` the relative growth was inactive: 1.01.
In the case of `C[C@@H]1CCCCO[C@@H](CN(C)Cc2ccc(Cl)c(Cl)c2)[C@@H](C)CN([C@H](C)CO)C(=O)c2cc(NC(=O)Nc3ccc(C(F)(F)F)cc3)ccc2O1`, the relative growth is reported as inactive: 0.996.
`Cc1ccc(S(=O)(=O)N(C)C[C@H]2Oc3ncc(C#CC4(O)CCCC4)cc3C(=O)N([C@@H](C)CO)C[C@@H]2C)cc1` was tested, and the relative growth was inactive: 1.01.
With `C=c1ccc(S(=O)(=O)NC[C@@H](C)O)cc1=C1NN=C2c3ccccc3C(C)=NN21` the relative growth was inactive: 0.987.
With `COc1ccccc1S(=O)(=O)N(C)C[C@H]1Oc2cc(C#CCC(C)C)ccc2S(=O)(=O)N([C@H](C)CO)C[C@@H]1C` the relative growth was inactive: 0.994.
For `CC(C)NC(=O)N(C)C[C@H]1Oc2ccc(NS(=O)(=O)c3ccc(F)cc3)cc2CC(=O)N([C@@H](C)CO)C[C@@H]1C`, the relative growth was inactive: 1.01.
`C[C@@H]1CN([C@@H](C)CO)C(=O)c2cc(C#Cc3ccc(F)cc3)cnc2O[C@H]1CN(C)CC1CCOCC1` was tested, and the relative growth was inactive: 0.991.
`COc1ccc(NC(=O)N(C)C[C@@H]2OCCCC[C@H](C)Oc3ccc(NC(=O)Cc4ccccc4)cc3C(=O)N([C@H](C)CO)C[C@@H]2C)cc1` was tested, and the relative growth was inactive: 0.983.
For `COc1ccc(C2CC(=O)c3c(O)cc(O)cc3O2)cc1O` (stereo unspecified), the relative growth was inactive: 1.03.
For `COC[C@@H]1CN(C)C(=O)[C@H]2CCN(S(=O)(=O)N(C)C)CC[C@@H]12`, the relative growth was inactive: 1.02.
For `CC(C)(C)[S@@](=O)N1Cc2cc(C(=O)NCc3ccc4c(c3)OCO4)nc(-c3cccc(-c4ccncc4)c3)c2[C@H]1CCO`, the relative growth was inactive: 1.04.
In the case of `CC(=O)c1cc2c(cc1O)OC(C)(C)C=C2`, the relative growth is reported as inactive: 0.946.
`O=C(C[C@H]1C[C@@H]2c3cc(NC(=O)Nc4ccc(C(F)(F)F)cc4)ccc3O[C@@H]2[C@H](CO)O1)NCc1cc(F)ccc1F` was tested, and the relative growth was inactive: 1.02.
`O=C(C[C@@H]1C[C@H]2c3cc(NS(=O)(=O)c4ccc(F)cc4)ccc3O[C@H]2[C@@H](CO)O1)NC1CCCCC1` was tested, and the relative growth was inactive: 0.997.
`CO[C@@H]1CN(C)C(=O)c2ccc(NC(=O)Nc3cccc(F)c3)cc2OC[C@H](C)N(C(=O)Nc2c(C)noc2C)C[C@H]1C` was tested, and the relative growth was inactive: 0.964.
In the case of `C[C@@H]1CCCCO[C@@H](CN(C)C(=O)c2ccncc2)[C@@H](C)CN([C@H](C)CO)C(=O)c2cc(NS(C)(=O)=O)ccc2O1`, the relative growth is reported as inactive: 1.
In the case of `C[C@@H]1CN([C@@H](C)CO)C(=O)c2cc(C3=CCCC3)cnc2O[C@@H]1CN(C)S(=O)(=O)c1cn(C)cn1`, the relative growth is reported as inactive: 0.966.
With `C[C@@H]1CN([C@@H](C)CO)C(=O)c2cccc(NS(=O)(=O)c3cccs3)c2O[C@@H]1CN(C)C(=O)Nc1cccc2ccccc12` the relative growth was inactive: 0.988.
With `C[C@H]1CN([C@@H](C)CO)C(=O)Cc2cc(NC(=O)Cc3cn(C)c4ccccc34)ccc2O[C@H]1CN(C)Cc1ccc(C(=O)Nc2ccccc2N)cc1` the relative growth was inactive: 1.03.
In the case of `Cc1noc(C)c1NC(=O)Nc1ccc2c(c1)C(=O)N([C@@H](C)CO)C[C@@H](C)[C@H](CN(C)C(=O)C1CCCCC1)OCCCC[C@@H](C)O2`, the relative growth is reported as inactive: 1.
In the case of `COc1ccc2c3c(n(c2c1)C)[C@@H](CO)N(C[C@]13CCN(CC1)C(=O)CC1CC1)C(=O)CN1CCOCC1`, the relative growth is reported as inactive: 0.934.
With `C[C@@H]1C(=O)O[C@@H]2C[C@@](C)(O)[C@H]3C[C@H]4O[C@@]4(C)[C@@]3(O)C(=O)[C@@H]12` the relative growth was inactive: 1.02.
With `C[C@@H]1CN([C@H](C)CO)C(=O)Cc2cc(NC(=O)CCN3CCOCC3)ccc2O[C@H]1CN(C)CC1CC1` the relative growth was inactive: 1.03.
For `O=C(NCCN1CCOCC1)[C@]1(CCS(=O)(=O)c2ccccc2)N=C(c2ccc(OCCCO)cc2)O[C@@H]1c1ccccc1`, the relative growth was inactive: 1.
With `O=C(Cc1ccsc1)N(Cc1ccc2c(c1)OCO2)Cc1cc2cc3c(cc2nc1N1CCOCC1)CCC3` the relative growth was inactive: 1.03.
In the case of `O=C(C[C@@H]1CC[C@@H]2[C@H](COC[C@H](O)CN2S(=O)(=O)c2ccc(Cl)cc2)O1)NCCN1CCCCC1`, the relative growth is reported as inactive: 0.997.
`COc1ccc(CN(C)C[C@H]2OCCCC[C@H](C)Oc3ccc(NC(=O)Cc4ccccc4)cc3C(=O)N([C@H](C)CO)C[C@@H]2C)cc1` was tested, and the relative growth was inactive: 1.01.
With `N[C@H]1CC[C@H](CCn2cc(C3CC3)nn2)O[C@@H]1CO` the relative growth was inactive: 0.888.
`C[C@H]1CN([C@@H](C)CO)S(=O)(=O)c2ccc(Br)cc2O[C@H]1CN(C)C(=O)Cc1ccccc1` was tested, and the relative growth was inactive: 1.
With `Cc1nsc(-c2ccccc2)n1` the relative growth was inactive: 0.987.
For `CN(C)C(=O)C[C@H]1C=C[C@@H](NC(=O)C2CCOCC2)[C@H](CO)O1`, the relative growth was inactive: 0.993.
`COc1ccc(NC(=O)Nc2ccc3c(c2)C(=O)N([C@H](C)CO)C[C@H](C)[C@@H](CN(C)CC2CC2)OCCCC[C@H](C)O3)cc1` was tested, and the relative growth was inactive: 0.998.
`COc1cccc(C#Cc2cnc3c(c2)C(=O)N([C@H](C)CO)C[C@@H](C)[C@H](CN(C)C(=O)C2CCOCC2)O3)c1` was tested, and the relative growth was inactive: 1.03.
With `CC(C)C#Cc1cnc2c(c1)C(=O)N([C@@H](C)CO)C[C@H](C)[C@H](CN(C)S(=O)(=O)c1cn(C)cn1)O2` the relative growth was inactive: 0.987.
`COc1ccc(-c2cnc3c(c2)C(=O)N([C@H](C)CO)C[C@H](C)[C@H](CN(C)C(=O)Cc2ccncc2)O3)cc1` was tested, and the relative growth was inactive: 0.977.
For `CC1(C)C=Cc2c(nc3ccccc3c2NCc2ccccc2)C1`, the relative growth was inactive: 0.489.
In the case of `O=C(C[C@@H]1CC[C@@H]2[C@H](COC[C@@H](O)CN2S(=O)(=O)c2ccccc2F)O1)NCc1ccccc1Cl`, the relative growth is reported as inactive: 0.992.
For `O=C(CCCCCCC(=O)N/N=C/[C@H](O)[C@@H](O)[C@H](O[C@@H]1O[C@H](CO)[C@H](O)[C@H](O)[C@H]1O)[C@H](O)CO)NO`, the relative growth was inactive: 1.
With `CCOC(=O)c1c(CN2CCN(CCOCCO)CC2)n(-c2ccccc2)c2cc(Br)c(O)cc12` the relative growth was inactive: 1.04.
In the case of `C[C@@H]1CN([C@H](C)CO)C(=O)Cc2cc(NS(C)(=O)=O)ccc2O[C@@H]1CN(C)S(=O)(=O)c1ccc(Cl)cc1`, the relative growth is reported as inactive: 0.985.
In the case of `C[C@H]1CCCCO[C@@H](CN(C)C(=O)Nc2ccc(C(F)(F)F)cc2)[C@@H](C)CN([C@@H](C)CO)C(=O)c2cc(NC(=O)Nc3ccc(F)cc3)ccc2O1`, the relative growth is reported as inactive: 1.01.
`C[C@H]1CN([C@@H](C)CO)C(=O)c2cc(NS(=O)(=O)c3ccc(Cl)cc3)ccc2O[C@H]1CN(C)C(=O)Nc1cccc2ccccc12` was tested, and the relative growth was inactive: 0.99.
